Some of the results follow.
Columns and labels:
HSkMC = human skeletal muscle cells; assay: cytotoxicity call (relative viability < 0.9); settings: 10 µM
S. aureus RN4220 = assay: growth inhibition call (relative growth <= 0.2); settings: 50 µM

SMILES	cytotoxicity call (HSkMC)	growth inhibition call (S. aureus RN4220)
CCCNC(=O)N1C[C@H](O)COC[C@H]2O[C@@H](CC(=O)NCCCN3CCOCC3)CC[C@@H]21	inactive	inactive
C[C@@H]1CN([C@@H](C)CO)C(=O)c2cc(NC(=O)Nc3cccc4ccccc34)ccc2O[C@H]1CN(C)CC1CCCCC1	inactive	inactive
C[C@@H]1CCCCO[C@@H](CN(C)C(=O)Nc2ccc3c(c2)OCO3)[C@@H](C)CN([C@@H](C)CO)C(=O)c2cc(NC(=O)Nc3ccc4c(c3)OCO4)ccc2O1	inactive	inactive
CC1(C)C=Cc2cc3ccc(=O)oc3cc2O1	inactive	inactive
COc1ccc(NC(=O)Nc2ccc3c(c2)C(=O)N([C@@H](C)CO)C[C@H](C)[C@@H](CN(C)Cc2ccccc2)OCCCC[C@H](C)O3)cc1	inactive	inactive
COc1ccc(COC[C@]23NC(=O)N(C(=O)c4ccccc4)[C@H](c4ccccc4O2)[C@H]3CO[Si](C)(C)C(C)(C)C)cc1	inactive	inactive
Cc1noc(C)c1NC(=O)Nc1ccc2c(c1)CC(=O)N([C@@H](C)CO)C[C@@H](C)[C@H](CN(C)C(=O)NC(C)C)O2	inactive	inactive
C[C@H](CO)N1C[C@H](C)[C@@H](CN(C)S(=O)(=O)c2cccs2)Oc2ccc(NS(=O)(=O)c3cn(C)cn3)cc2CC1=O	inactive	inactive
NCc1cc2ccc(F)cc2[nH]c1=O	inactive	inactive
CC(C)CNC(=O)C(=O)NCc1ccccn1	inactive	inactive
C[C@@H]1CN([C@H](C)CO)C(=O)CCCn2nncc2CO[C@H]1CN(C)S(=O)(=O)c1ccccc1C#N	inactive	inactive
COc1cccc(S(=O)(=O)N2C[C@H](O)COC[C@@H]3O[C@H](CC(=O)NCCCN4CCOCC4)CC[C@H]32)c1	inactive	inactive
COc1ccc(NC(=O)N(C)C[C@H]2Oc3c(NC(=O)CCCCCC(=O)Nc4ccccc4N)cccc3C(=O)N([C@@H](C)CO)C[C@H]2C)cc1	inactive	inactive
Cc1ccc(S(=O)(=O)Nc2ccc3c(c2)C(=O)N([C@H](C)CO)C[C@H](C)[C@@H](CN(C)Cc2ccc(Oc4ccccc4)cc2)O3)cc1	inactive	inactive
Nc1ncnc2c1ncn2[C@@H]1O[C@H](CO)[C@@H](O)[C@H]1O	inactive	inactive
C[C@@H]1CN([C@@H](C)CO)C(=O)CCCn2nncc2CO[C@H]1CN(C)Cc1ccc2c(c1)OCCN2C	inactive	inactive
COCC(=O)Nc1ccc2c(c1)OC[C@H](C)N(C(=O)Cc1cccnc1)C[C@@H](C)[C@H](OC)CN(C)C2=O	inactive	inactive
O=C(CC(=O)N1CCOCC1)N1CCOCC1	inactive	inactive
NC(=O)c1ccc[n+](CC(=O)N2CCCCC2)c1	inactive	inactive
CC(C)NC(=O)Nc1cccc2c1O[C@@H](CN(C)Cc1ccc(Oc3ccccc3)cc1)[C@@H](C)CN([C@@H](C)CO)C2=O	inactive	inactive

SMILES	cytotoxicity call (HSkMC)	growth inhibition call (S. aureus RN4220)
O=C(C[C@H]1CC[C@H]2[C@@H](COC[C@@H](O)CN2S(=O)(=O)c2ccc(F)cc2)O1)N[C@H]1CCN(Cc2ccccc2)C1	inactive	inactive
C[C@H](CO)N1C[C@H](C)[C@@H](CN(C)Cc2ccc(Cl)c(Cl)c2)Oc2ccc(NC(=O)Cn3cnnn3)cc2CC1=O	inactive	inactive
C[C@H]1CN([C@@H](C)CO)C(=O)Cc2cc(NC(=O)Cc3ccccc3)ccc2O[C@@H]1CN(C)Cc1ccc(Cl)c(Cl)c1	inactive	inactive
CC(C)NC(=O)Nc1ccc2c(c1)CC(=O)N([C@H](C)CO)C[C@H](C)[C@@H](CN(C)S(=O)(=O)c1cn(C)cn1)O2	inactive	inactive
CC(=O)Nc1ccc(C(=O)NN)cc1	inactive	inactive
COc1ccc(NC(=O)Nc2ccc3c(c2)[C@@H]2C[C@H](CC(=O)NCc4ccccn4)O[C@H](CO)[C@@H]2O3)cc1	inactive	inactive
O=C(C[C@H]1CC[C@@H]2[C@H](COC[C@H](O)CN2S(=O)(=O)c2ccccc2)O1)N1CCOCC1	inactive	inactive
COc1ccc(S(=O)(=O)Nc2ccc3c(c2)C(=O)N([C@@H](C)CO)C[C@H](C)[C@@H](CN(C)C(=O)Nc2cccc4ccccc24)OCCCC[C@H](C)O3)cc1	inactive	inactive
C[C@@H]1CCCCO[C@H](CN(C)Cc2ccc3c(c2)OCO3)[C@@H](C)CN([C@@H](C)CO)C(=O)c2cc(NC(=O)C3CCCCC3)ccc2O1	inactive	inactive
C[C@H](CO)N1C[C@H](C)[C@H](CN(C)C(=O)Nc2ccc(C(F)(F)F)cc2)OCCCC[C@H](C)Oc2ccc(NC(=O)Nc3cccc4ccccc34)cc2C1=O	inactive	inactive
COc1ccc(CN(C)C[C@@H]2Oc3c(NC(=O)Nc4cccc5ccccc45)cccc3C(=O)N([C@@H](C)CO)C[C@@H]2C)cc1	inactive	inactive
O=C(C[C@H]1C[C@H]2c3cc(NC(=O)Nc4ccc(C(F)(F)F)cc4)ccc3O[C@H]2[C@@H](CO)O1)NCc1cc(F)ccc1F	inactive	inactive
C[C@H]1CN([C@@H](C)CO)C(=O)c2cccc(NS(=O)(=O)c3ccc(Cl)cc3)c2O[C@H]1CN(C)Cc1ccc(Oc2ccccc2)cc1	inactive	inactive
C[C@@H]1CN([C@@H](C)CO)S(=O)(=O)c2ccc(C#CCN(C)C)cc2O[C@H]1CN(C)C	inactive	inactive
C[C@H]1CN([C@@H](C)CO)S(=O)(=O)c2ccc(-c3cccnc3)cc2O[C@@H]1CN(C)C(=O)NC1CCCC1	inactive	inactive
NC(=O)N/N=C/c1ccc([N+](=O)[O-])o1	inactive	active
COc1ccc(S(=O)(=O)N[C@H]2CC[C@@H](CC(=O)N3CCC(Cc4ccccc4)CC3)O[C@@H]2CO)cc1	inactive	inactive
CN1C(=O)c2cc(NC(=O)c3ccc(C(F)(F)F)cc3)ccc2OC[C@@H]2O[C@@H](CC(=O)NC3Cc4ccccc4C3)CC[C@H]21	active	inactive
COCC(=O)N(C)C[C@@H]1Oc2cc(C#Cc3cccnc3)ccc2S(=O)(=O)N([C@H](C)CO)C[C@@H]1C	inactive	inactive
C/C=C(\C(C)=N\O)c1ccccc1	inactive	inactive

SMILES	cytotoxicity call (HSkMC)	growth inhibition call (S. aureus RN4220)
COc1ccc(NC(=O)Nc2ccc3c(c2)CC(=O)N([C@@H](C)CO)C[C@@H](C)[C@H](CN(C)C(=O)Nc2cccc4ccccc24)O3)cc1	inactive	inactive
CN1C=C(C(=O)OCCS(C)(=O)=O)C(C(=O)OCCS(C)(=O)=O)=CC(CCCO)=C[C@@H]1C1CC1	inactive	inactive
COc1ccc(S(=O)(=O)N(C)C[C@@H]2Oc3ccc(N(C)C)cc3C(=O)N([C@H](C)CO)C[C@H]2C)cc1	inactive	inactive
C[C@H](CO)N1C[C@H](C)[C@@H](CN(C)Cc2ccncc2)OCCCC[C@H](C)Oc2ccc(NC(=O)NC3CCCCC3)cc2C1=O	inactive	inactive
C[C@H]1CN([C@@H](C)CO)C(=O)Cc2cc(NC(=O)Cc3ccccc3)ccc2O[C@H]1CN(C)Cc1ccc(C(F)(F)F)cc1	inactive	inactive
C[C@H]1CN([C@@H](C)CO)C(=O)Cc2cc(NC(=O)Nc3ccc(F)cc3)ccc2O[C@H]1CN(C)C(=O)Nc1ccc(C(F)(F)F)cc1	inactive	inactive
COc1ccccc1NC(=O)N(C)C[C@@H]1Oc2ncc(C#CC(C)C)cc2C(=O)N([C@H](C)CO)C[C@H]1C	inactive	inactive
C[C@H]1[C@H]([Si](C)(C)F)[C@@H](CCO)O[C@]12C(=O)N(Cc1cccc(N3C(=O)COc4ccccc43)c1)c1ccccc12	inactive	inactive
C[C@H]1CN([C@@H](C)CO)C(=O)Cc2cc(NC(=O)C3CCCCC3)ccc2O[C@H]1CN(C)Cc1ccc(C(F)(F)F)cc1	inactive	inactive
C[C@H](NC(=O)N(C)C[C@H]1OCc2ccccc2-c2ccccc2C(=O)N([C@H](C)CO)C[C@@H]1C)c1ccccc1	inactive	inactive
CN(C)CCCCNC(=O)[C@@H]1C[C@@H]2C(=O)N[C@@H](CCCC[N+](C)(C)C)C(=O)N2[C@@H]1c1cccc(OCCO)c1	inactive	inactive
C[C@@H]1CCCCO[C@@H](CN(C)C(=O)C2CCCCC2)[C@@H](C)CN([C@@H](C)CO)C(=O)c2cc(NC(=O)Nc3ccc(F)cc3)ccc2O1	inactive	inactive
Cc1ccc(S(=O)(=O)N(C)C[C@H]2OCCCC[C@H](C)Oc3ccc(NC(=O)NC4CCCCC4)cc3C(=O)N([C@@H](C)CO)C[C@@H]2C)cc1	inactive	inactive
C[C@@H]1CN([C@H](C)CO)C(=O)c2cc(NC(=O)Cn3cnnn3)ccc2O[C@@H]1CN(C)CC1CC1	inactive	inactive
CC(C)C[C@H](NC(=O)[C@@H](COC(C)(C)C)NC(=O)[C@H](Cc1ccc(O)cc1)NC(=O)[C@H](CO)NC(=O)[C@H](Cc1c[nH]c2ccccc12)NC(=O)[C@H](Cc1cnc[nH]1)NC(=O)[C@@H]1CCC(=O)N1)C(=O)N[C@@H](CCCNC(=N)N)C(=O)N1CCC[C@H]1C(=O)NNC(N)=O	inactive	inactive
Cc1ccc(S(=O)(=O)Nc2ccc3c(c2)C(=O)N([C@H](C)CO)C[C@H](C)[C@H](CN(C)Cc2ccc4c(c2)OCO4)OCCCC[C@@H](C)O3)cc1	inactive	inactive
O=C(CN1CCNCC1)c1ccc(F)cc1	inactive	inactive
CC(C)(C)[S@@](=O)N1Cc2cc(C(=O)NCC(F)(F)F)nc(-c3cccc(-c4cccc(F)c4)c3)c2[C@H]1CCO	inactive	inactive
CO[C@H]1CN(C)C(=O)c2ccc(NS(C)(=O)=O)cc2OC[C@H](C)N(C(=O)c2ccc3c(c2)OCO3)C[C@H]1C	inactive	inactive
C[C@@H]1CCCCO[C@@H](CN(C)Cc2ccc(C(F)(F)F)cc2)[C@H](C)CN([C@H](C)CO)C(=O)c2cc(NC(=O)Cc3ccccc3)ccc2O1	active	inactive
